Measured values as given in the supplement of paper PMC10681739.
Over roughly 2,700 sequences, “arbitrary fluorescence units” has its median near 4,100; the highest 2% begin near 54,000. Some of the results follow.

target: T1, ETS1 (UniProt P14921); assay: ETS1 binding intensity (PBM fluorescence) (arbitrary fluorescence units); higher = stronger binding; conditions: ETS1 concentration 10 nM
T1 sequence: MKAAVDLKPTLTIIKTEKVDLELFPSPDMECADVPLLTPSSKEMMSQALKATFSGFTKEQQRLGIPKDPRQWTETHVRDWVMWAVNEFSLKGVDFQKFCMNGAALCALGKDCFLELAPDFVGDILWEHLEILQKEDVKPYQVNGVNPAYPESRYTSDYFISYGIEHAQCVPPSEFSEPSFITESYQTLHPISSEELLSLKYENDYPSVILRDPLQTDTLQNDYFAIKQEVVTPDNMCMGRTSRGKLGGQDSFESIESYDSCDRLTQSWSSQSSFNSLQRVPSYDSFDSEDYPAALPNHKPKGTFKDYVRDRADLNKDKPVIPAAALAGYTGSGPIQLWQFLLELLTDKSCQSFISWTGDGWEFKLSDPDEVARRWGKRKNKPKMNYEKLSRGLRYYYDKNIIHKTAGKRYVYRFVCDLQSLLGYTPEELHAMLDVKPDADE
Experimental: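 gcPBM on wild-type 36-bp genomic probes with two neighbouring ETS1 sites (4-24 bp apart). Recombinant human ETS1 (10 nM) was detected with anti-ETS1 antibody fluorescence. Values are medians over 3 replicate spots. The probes sit in constant array flanks that are not printed.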

Sequence | ETS1 binding intensity
GCTCTCATTTCCTGCTTTATAAAAGGAAGTGAAGCC | 28900
ACCCAGTCATTTCCTGTTGCACTTCCTTGTTTATTT | 22100
AATGAATAAAAAAGGAAACAGGAAGCAGTCCTGGGT | 2150
CACCAACTGACATTTCCCCATCCTGTTTTTGGAGGG | 856
GGGGCAGTCTCCCTTCCGGCTTCCGGGACCGAAGGG | 16200
GATTTATGAATTTCCTGTGGGCTTCCTGGCAGCCAT | 13500
CTCCTGGGAAATGTAGTTCATAGGGTTTCCGCCTTG | 232
CGCGCTCCGTTTCCTAGGAGCCGGGAAATGGTCGCC | 468
TTTACCGGAAGTCGGAGGGGTCAGACGGAAGCAGAA | 28400
GGCCTCAGGAAGCCTCCAATCATGGCGGAAGGCAAG | 203
GTTTTCTTGTTTCCGCTGCTATTTCCTGCTTGGGTT | 18900
ACACGCCGAGCAGGATGAAGAGGAAGTTGCCCAGGC | 384
CGCGGCGCTTCCGCGCCAGTTGGAGTTCCGGGTGGG | 3570
CACCACGTTTTTCCGCAGTAACCGGATGACTCCTAC | 753
ATTTTTTCCTGAACACTCTGAAATATCAGGAAGTAT | 343
TTACATCCTGTCCTGCACACACCCATACATCCTGTT | 48700
TCAACATCCTGCTTCTCAGGGCACCACAGGAAATGT | 36600
GGCTGCCACAGGAAGTACGTCACGGAAGAGGGTGGG | 9870
CTCGTAAGGGAAGTAGAGTTTGTTTTCCGGTAAGCC | 1320
CCACCCACCACATCCTGTCTCCGGAATCTAGAAGTC | 27000
TTCATGGCAGGAAACAGAAGTACTTCCTGTGGGAGA | 11500
CTTTGACCCCGGAAAAGAGATCTTCCGGGTTCCTCT | 2670
CAGCCTCCTTCCGGCCTGGCTCTCCTTCCGCCCGCC | 27500
CAACATATTCATCCTGGGAGGCAGGAAGGTGATTTC | 244
GGGCGGGAGCGGAAGCTGCGCGCGGAAGCGCCGAGT | 4280

Sequence | ETS1 binding intensity
GAGTACGTCACTTCCGCAACGCTTCCTTCGCGGGGC | 20800
GCACAGCCAGCTTCCTTTTTAAGGATATGACATCAA | 3840
GCTCTAGTTGGGGAAATGAAACATCCGTATAAGCAA | 466
AGCACTTCCTCAATTTCTGGCTCTACAGGATATTTC | 16100
GCACCCAGCCGGTTTCCTTTTCCTGTGCACACTCTC | 3810
ACTCAGGAAACGGAGAGAAGCCACCACAGGAAACGG | 1530
CGACGCACCGGAAGTTTTGAAATATCCTGTGGGCTT | 28900
CAAGAACCGGAAGCCATGGCCTGACTTCCGGCACCG | 28100
TCCGCTTCCTGGAATATTAGCCAGGCAGGATACGCC | 8620
CAGCAATTTCCTAATTGAATCTCCATTTCCTGTGTT | 6960
AAAAAGGATGTGGGTCTGTGGGAGGGCTTCCTGGAA | 700
CGGCCTCTTCCGCGAGCCCGCGCGCCGGAAGTGGAA | 5440
GGTAAACAGGAAAAGGTGAAACGAGGAAACAAAGTG | 1710
TTTAGACTTCCTCACAGGCAGTACGGGAAATAAACA | 3420
TTTGCTTCCGTGGCCAAAGGCGCTTCATTTCCGGGT | 4660
TAGAGGTTTCCGCTCAGAGCAACCAGGAAGGTGGAA | 9960
TCTTTTGTGGCTTCCTGTAGCAGGATATAGGTTTCC | 13300
TTATCAGGAAATGAAGGCTCAGGGAGGGGAAGTGAG | 1270
TGGCACAGCCCCGGAACTCGCTTCCTGCCTCTCCCG | 5850
GCGCGCCCACGCGCTTCCTTCCGCCCTCCGCGCCGG | 2690
AGGAGCCTTCCTGTCATGGTGGGCAGGAAGACATTT | 8350
TAACCGGAAATACGCACGGTTTCACCCGGAAGTGCC | 14200
CTCACTTCCTCTTGGCCCCATCACCACTTCCCCAAA | 23500
TGAGTATCGGAAACATCTACTACAGGATGTTTACCA | 466
AAGGCAGGATGTGTGTAATAACACATTTCCTTGGTC | 5050

Sequence | ETS1 binding intensity
TGGGTGGGGGCGGAACTTGGCGGAAGTGCGCGCTAC | 2260
GGAGCGGAAGGGCTGTGTGTCAAAAGAAGGAAGCCA | 676
GCCGTTTGCATTTCCTGAAACCGGATCTTAGTGTCA | 8220
ACCAAGAGAGGAAGTAACACTCAGGAAGTGGTCAAC | 4920
GGCCATGAGAAAGGAAGCTGAGGAAGTAGGAGGGAA | 343
GCTGCCGGAGCATCCGGTGGCAGGAAGCCCAGTCCA | 37300
CACAGCACATTCAGGAAACAGGAAGTAGTCTGATAG | 7680
ACTCTCTCAAGAGGAAGCACATCCTGCCATGGGAAC | 8960
TGAACTTTTAGGAAACACCCACTTCCTGTGAGCTTT | 10100
CGACCATGGGCCCTTCCGCAGGAAGAGGGCAGCGCC | 617
AGCTCTTCCTGCCTGCCATTCAATCCAGGAAATGCG | 16000
CGTAACGGAAGGCTCGCACTCTTGTCTTCCGGTCGC | 2230
CGGGAGGAAGTGACGCTCCCAGCCAGCTTCCGGTCC | 12400
AGCTTGAACTTCCCAGGGGTCATTTCCTTTGGCAAG | 820
CGCCACTGAGGAAATGAGGGAGAGGAAGCAGGTGAT | 520
GCGCCTGCGGCTGGAAGGCACTTCCGGCGGAAGTTA | 17800
ACAAGGCCGGATGTGTTCTGAGCCGGAAGAGGAGTG | 15900
AGAAGCGGAAAAGGCCTGAGAGGGTCGGAAGTGGGG | 1050
CGCGCACGCAGGAAGGAGCCATTTCCTAGAGATGGG | 1120
GCCGGTCGCCTTCCTGAAAAAGCGGAAAAACTTAAA | 595
CCCCGCGAGACTTCCCCCGGCGGAAAAGGCCCAGAG | 916
AGAAGACACAGGAAGCCATCTGCTTCCTGGCTGTAT | 4010
ATCTCTCCTTCCTGTGTCATCAGCTTCCTGACCCTT | 7710
ACCCCCTTTCCTGTCTGACCTCTGTTTCCTAGACAG | 13300
GGAGGCACAGGAAGCCAACAAGAGGAAGCAGGAGCA | 2810

Sequence | ETS1 binding intensity
AGCAGGAAGCGAGCCCGGCGGCCGCGTTTTCCTGGG | 1030
TGAAGAGTACTGTTTCCTCAGGAAATTGCCATTTTT | 648
GCTGCAGAAGGAAACGGGACCCACATCCTGGCCCTG | 1280
CAAGAGAGGAAGTAGAGTGACTCATTTTCCGCCCCA | 1690
CAAGTATTTCCTCATTCTGAACAAAGGATGTCGACA | 3270
ACCCACTTCCCTCCTGTCCCTACCACATCCTTAACT | 5350
CGAGACAGGCTCATCCGGCGCGGATGAGACAGGCTC | 4090
TCCACTTCCGTCTCCAGCTCGCTCTCCAGGATGTGG | 31600
CCCACTGCAGGAAAAAACAAGGACTTCCGCCTCCCT | 2050
GAGACTTCCTGCCACCCTCAGGCCGAACTTCCTGCT | 41500
GCTCAGCCCAGGAAACCATTATTTCCTCCTAGGCCT | 845
TCTGGGAGGAAGCGCAGGAGACCTGGTTCCTGTTTC | 413
GTCACCTTCCTGAGGGAGGGAGTGGCAGGAAACCCC | 1090
AGAAACAGGAAGCTGCATTCAATGGTTTCCTGCCCA | 9800
GAGTGAGTGGGTTTCCTGTGCGGAAACACCTTGCTT | 8190
TGAGGCGGTTTCCTCGGCGCCTTTTCCGGCAGCGGC | 1360
CACCGCTTCCGCCAGGGGCTTCTGGCGGAAGCCCGC | 17200
GGAACGGAAGCGCGCGGCCTCGAGGCCCTTCCGGTG | 5560
GAGGTGGGGAGGAAGAGCTGCCGGAAGTAGGCGGTG | 5440
CCGGAGCGGAAGTGGCGATCGGAGCGGAAGTGGAGC | 23200
TAGCCCAGCAGGATGTGGTGGTAGGATGTGGTTAGG | 2120
TGCAGTCCGTCTTCCTGCTTCATCCGGTGGCCAGGC | 7210
AAATGGCCACGCCGGAACCGGAACTACCTCCGAGTC | 1460
GTCCACCCCGGAAACTCAAGGGAGGAAACTGACTGC | 2570
AGGCTGCTTCCTTGTCTTTGCCAGCTTCCTCCTGTC | 2330

Sequence | ETS1 binding intensity
GTTGCCGGAAATTGTCGAAGATTACCGGAAGCTACC | 22300
TCCTTCTCATCCTGGAAACGGAAGTTTATTTTGAAG | 2570
TGCACAGGAAATAAGCTACTCTTAAAGGAAATATGA | 8120
CCCCGGTCCATTTCCGGGCTCCGGATATTTGGTATC | 29100
TGTTACACAGGAAGTTGCATGGTTTCCTGACTTCTA | 15200
GCCCGTAAGCCGGAAGGCGGCTTCCGGGAGCGCGTG | 11500
AGGGCGGAAAGGCAGTTGCTCTGCAAAGGAAACGGC | 200
TTAGCTTTACGGAAATTTGAAGAGGAAGTCTTTTTT | 332
CCAGCTTCCTTAGCAACCACCTGGCCTCTTCCTGGG | 3030
CCTTTACCTTCCTGACTTGTCGCTTTTCCTGGCTCG | 1060
GAGATAAAAGAGAGGAAGTTTCCTGCTTGCGGCCTA | 2470
ATCTCATGAGGTTTCCTGTACTTCCTGCCACTGCTG | 7820
CACGGGGGCGGATGCAGAGGACCAGGAAGTTCGCCG | 2020
CCCAGGAAGTTAGGCATTCTTAGTCACAGGATGAGA | 2070
CCTGCTTGAGCTTCCTGCCTTTTCCTGAGCTTCTGA | 12800
ATGTCAGAAACAGGATGTAGCTTCCTCTGTGTCAGG | 9620
GTGGGGCCTCGGCTTCCGCAGGAAGTGGTCTTGGTG | 4020
CAGAACCACTTCCTCTCATGACAGGAAACCAATGAA | 18600
GAGCAGATAGAGGAAGTGGCAGGATCTCTCCTTTCT | 3470
GGTCCGGAAGGGAGGAGAACACAAGCAGGATATAAC | 860
AGGGCAGGAAGGAGGCACCCAATTTGTTTCCTGTGA | 1940
GCTCCCGGCGGAAGCGGCTGCACTTCCGGTCCCCGC | 38000
ATGCTGGGATGTTTGGGTAACACCCACTTCCTCTCC | 320
ATCACCAGCCTTCCTGTGGGACCGGAAAGGCAGTAG | 2720
CCTCTTACTTTTCCTGTCAGTGAGGAAGCTGTTTAC | 4410
